# Test results: article PMC4336329 (PLoS ONE, 2015)
# Screen size: about 310,000 compounds; about 2,200 (0.71%) showed an effect of 50% or more. Effects have a minus sign here. This is one part of the list.
# Target: human ether-à-go-go-related gene (hERG) potassium channel (human, UniProt Q12809)
# Assay: primary screen, population patch clamp on CHO cells stably expressing hERG
# Chain of human ether-à-go-go-related gene (hERG) potassium channel (Q12809 whole entry, looked up): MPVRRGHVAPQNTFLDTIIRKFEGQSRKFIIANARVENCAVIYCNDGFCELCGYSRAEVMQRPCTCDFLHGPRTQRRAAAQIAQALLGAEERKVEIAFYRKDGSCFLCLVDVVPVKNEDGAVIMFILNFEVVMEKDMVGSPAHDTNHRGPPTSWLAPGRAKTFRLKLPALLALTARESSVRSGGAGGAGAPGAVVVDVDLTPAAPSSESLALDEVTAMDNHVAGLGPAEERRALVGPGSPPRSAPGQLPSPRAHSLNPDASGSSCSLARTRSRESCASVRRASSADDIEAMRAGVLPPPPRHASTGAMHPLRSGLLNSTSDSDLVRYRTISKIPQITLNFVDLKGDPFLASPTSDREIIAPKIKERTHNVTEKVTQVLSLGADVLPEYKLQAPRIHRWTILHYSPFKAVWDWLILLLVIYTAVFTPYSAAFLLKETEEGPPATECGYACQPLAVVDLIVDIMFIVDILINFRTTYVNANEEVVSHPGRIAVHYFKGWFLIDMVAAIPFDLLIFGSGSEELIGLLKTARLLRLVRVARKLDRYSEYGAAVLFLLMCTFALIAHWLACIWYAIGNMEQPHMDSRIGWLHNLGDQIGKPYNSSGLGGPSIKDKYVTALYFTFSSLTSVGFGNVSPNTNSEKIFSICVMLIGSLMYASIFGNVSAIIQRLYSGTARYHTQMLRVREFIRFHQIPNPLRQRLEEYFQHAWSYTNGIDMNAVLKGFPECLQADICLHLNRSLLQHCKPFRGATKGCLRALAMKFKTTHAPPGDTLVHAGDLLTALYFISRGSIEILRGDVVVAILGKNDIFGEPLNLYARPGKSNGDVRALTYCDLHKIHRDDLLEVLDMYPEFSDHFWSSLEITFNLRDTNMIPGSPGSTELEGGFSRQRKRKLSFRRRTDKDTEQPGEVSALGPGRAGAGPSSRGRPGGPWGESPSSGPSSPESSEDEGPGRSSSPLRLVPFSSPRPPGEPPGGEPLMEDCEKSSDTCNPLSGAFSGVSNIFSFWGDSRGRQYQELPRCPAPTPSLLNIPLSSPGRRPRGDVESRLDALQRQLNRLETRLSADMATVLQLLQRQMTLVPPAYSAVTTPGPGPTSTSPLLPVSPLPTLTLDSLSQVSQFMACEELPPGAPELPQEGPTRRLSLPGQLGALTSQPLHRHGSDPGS
row,Compound,"hERG current change (%, negative = inhibition) at 1uM [%]"
1,CC(=O)/C(=N\Nc1ccccc1)Sc1nncn1C,7.95
2,CCOC(=O)c1sc(Nc2nc3c(F)cccc3s2)cc1C,12
3,O=C(CSc1nc2ncc(Br)cc2[nH]1)c1ccc([N+](=O)[O-])cc1,-12.2
4,C=C(c1cccc2ccccc12)P(=O)(O)O,0.966
5,COC(=O)c1cn(C(=O)c2ccccc2F)nc1N,-7.5
6,COc1ccccc1N1CCN(C(CNS(=O)(=O)c2ccccc2)c2cccnc2)CC1 (stereo not shown),1.14
7,CCOC(=O)C1=C(C)Nc2ccccc2N=C1NC(=O)c1cccc(S(=O)(=O)NCc2ccccc2)c1,-7.52
8,C=CCNc1nc2c(c(=O)n(C)c(=O)n2C)n1CC(=C)C,8.49
9,NC(=O)NC(=O)C(c1ccccc1)N1CCN(S(=O)(=O)Cc2ccccc2)CC1 (stereo not shown),1.61
10,Nc1cc(=O)[nH]c(SCc2cccc(Cl)c2)n1,10.4
11,Cc1ccnc(N2CCC(C(=O)NNC(=O)COc3cccc4ccccc34)CC2)n1,10
12,CC(=O)Nc1ccc2c(c1)c1ccccc1n2C(C)=O,4.95
13,CC(C(N)=O)N1C(=O)C2C3C=CC(C3)C2C1=O (stereo not shown),9.87
14,O=C(Nc1nc2c(s1)CCCC2)c1ccc(S(=O)(=O)N2CCCc3ccccc32)cc1,10.6
15,COc1ccc(S(=O)(=O)N(C)CC(=O)NCCc2ccccc2)cc1OC,4.72
16,CCN1CCN(C(=O)C2=C(C(=O)O)CCCC2)CC1,7.69
17,Cc1ccc(N2C(=O)CC2(C#N)c2ccc(OCc3ccccc3)cc2)cc1 (stereo not shown),-21.7
18,Cc1ccc(S(=O)(=O)N2[C@@H](c3ccccc3)C(C(=O)O)=CC[C@H]2c2cccc(Cl)c2)cc1,8.85
19,O=C1C[C@@H](c2ccc(O[C@@H]3O[C@H](CO)[C@@H](O)[C@H](O)[C@H]3O)cc2)Oc2cc(O)ccc21,1.47
20,Cc1csc(Sc2nc3c(c(=O)[nH]c(=O)n3C)n2CCCc2ccccc2)n1,13.2
21,O=C(Cn1cc(C(=O)c2ccco2)c2ccccc21)NC1CCCCC1,8.74
22,COc1ccccc1CNC(=O)c1ccc(S(=O)(=O)N(C)C)cc1,13.9

row,Compound,"hERG current change (%, negative = inhibition) at 1uM [%]"
1,Cc1ccc(C)c(NC(=S)Nc2ncccc2C)c1,7.56
2,Cc1nnsc1C(=O)N1CCCC(Nc2ccc(F)c(F)c2)C1 (stereo not shown),11.7
3,CCc1c(C)nc(Nc2nc(C)c3cc(OC)ccc3n2)[nH]c1=O,12.3
4,CCOc1ccc(-n2c(Cc3cc(=O)[nH]c(=O)[nH]3)nnc2SCC(=O)NC2CCCC2)cc1,13.2
5,O=C(Cn1nc(-c2cccc([N+](=O)[O-])c2)c2ccccc2c1=O)Nc1cccnc1,11
6,Cc1nc2c(C#N)c(C)[nH]n2c(=O)c1Cc1ccccc1,15
7,CCSc1nc2cc(C(=O)OC)ccc2c(=O)n1CC,2.14
8,CCc1nc(CN2CCN(Cc3ccc(F)c(F)c3)C(CCO)C2)c(C)[nH]1 (stereo not shown),16.6
9,COc1ccc(C(=O)Nc2sc3c(c2C(=O)O)CC(C)(C)OC3)cc1,-1.26
10,O=C1C=C(c2ccccc2)CCC1,14.2
11,CCCCn1c(=O)[nH]c(=O)c2c1nc(-c1ccc(-c3ccccc3)cc1)n2C,16.8
12,O=C(N/N=C/c1ccncc1)c1cc(C2CC2)nc2ccccc12,8.6
13,CCOC(=O)c1c(C)[nH]c(C(=O)OCC(=O)N2CCc3ccccc32)c1C,13.4
14,CCc1ccccc1NS(=O)(=O)c1ccc2c(c1)C(C)(C)C(=O)N2C,3.18
15,C#CCOCCOCCOCCNc1nc(N2CCN(C(=O)CCCCCCCCCCNC(=O)Cn3cc(C[C@@H](C)O)nn3)CC2)nc(N2CCN(C(=O)CCCCCCCCCCNC(=O)[C@H](CO)n3cc(CCCSC)nn3)CC2)n1,4.11
16,NC(=O)c1cccc([N+](=O)[O-])c1,2.08
17,CCCC12CN(C(=O)c3ccc([N+](=O)[O-])cc3)CC(C)(CN(C(=O)c3ccc([N+](=O)[O-])cc3)C1)C2=O,3.51
18,O=C(Nc1ccc(OCC(=O)N2CCN(S(=O)(=O)c3ccccc3)CC2)cc1)c1ccco1,12.1
19,Cc1[nH]c2ccccc2c1/C=N/NC(=O)c1cccc(S(=O)(=O)Nc2cccc(C(F)(F)F)c2)c1,13.2
20,Cc1ccc(S(=O)(=O)N2CC(C(=O)O)=CC[C@H]2c2ccc(Cl)cc2)cc1,12.2
21,Cc1nn(C(C)(C)C)c(N)c1-c1ccccc1,16.9
